Source: PubChem BioAssay AID686978 (National Center for Advancing Translational Sciences (NCATS), 2013)
Out of some 420,000 compounds screened, about 64,000 (15%) were called active. The shares of active, inactive and inconclusive entries below differ from those in the screen. The call rests on the fitted dose curve; in most records, active means well fitted inhibition curve with a large enough effect; inconclusive means small, poorly fitted or top-dose-only effect; inactive means flat fitted curve, though single readings scatter. Potencies of inconclusive entries are left out as doubtful fits.
On the % scale 0 is the no-effect control and ±100 the full control effect; potency means the concentration at half of the fitted maximal effect; tags describe the fitted curve by direction and shape.

Assay: qHTS for Inhibitors of human tyrosyl-DNA phosphodiesterase 1 (TDP1): qHTS in cells in absence of CPT; further: nearly all actives have a fitted effect of over 55% in size
Details: DT40 Tdp1-/- hTDP1 cells, no CPT, ATP luminescence, 48 h; activity change, negative = growth inhibition: at 46.2 µM (top of the series) unless noted
In short: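 DT40 Tdp1-/-;hTDP1 cells, no CPT (DMSO vehicle only), 400 cells/well; compounds pin-transferred; ≥48 hr, 37 °C; CellTiter-Glo 30 min RT dark, luminescence read.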
In the case of `CCCCCCCNC(=O)C1(CC2CC(c3ccccc3)=NO2)CCNCC1` (stereo not drawn), the Potency is reported as active: 16.4 µM. With `Cc1nc(SCC(=O)Nc2ccccc2F)[nH]c(=O)c1Cc1ccccc1` the Potency was inconclusive [inhibitor, single point]. For `Cc1cccc(C2=NN(c3ccc(Br)cc3)[C@@H](C(=O)N3CCOC3=O)[C@@H]2c2ccc(Cl)cc2)c1`, the Potency was inconclusive [inhibitor, single point]. With `CCc1ccc(NC(=O)CN(c2cccc(C)c2)S(C)(=O)=O)cc1` the Potency was inconclusive [inhibitor, single point]. In the case of `CC(=O)N1CCC[C@@]2(CCN(Cc3ccccc3)C2)C1`, the Potency is reported as “inactive”. With `Cc1ccc(S(=O)(=O)NCC(=O)N2CCOCCOCCOCCOCC2)cc1` the Potency was “inactive”. In the case of `O=C(c1sc(N2CCOCC2)nc1-c1ccccc1)N1CCCCC1`, the Potency is reported as inconclusive [inhibitor, single point]. With `COc1ccc(NC(=O)CCc2nnc3n(CC(C)C)c(=O)c4ccccc4n23)cc1` the Potency was “inactive”. In the case of `NS(=O)(=O)c1ccc(O)c(N2C(=O)c3cccc4c(C(=O)O)ccc(c34)C2=O)c1`, the Potency is reported as “inactive”. For `CCOC(=O)Cn1nnnc1C(CC)N(Cc1cc2ccc(C)cc2[nH]c1=O)C1CCCC1` (stereo not drawn), the Potency was inconclusive [inhibitor, single point]. In the case of `Cc1cc(C)c2c(c1)/C(=N/NC(=O)c1cc(C)oc1C)CCC2`, the Potency is reported as “inactive”. In the case of `Cc1cc(Br)ccc1NC(=O)C1CCCO1` (stereo not drawn), the Potency is reported as “inactive”. For `COc1ccc(NC(=O)c2ccc3c(c2)OCCO3)cc1OC`, the Potency was “inactive”. In the case of `NNC(=O)Cc1cccc2ccc(Cl)cc12`, the Potency is reported as “inactive”. With `COc1ccc(CCNC(=O)c2cccc(S(=O)(=O)N3CCCC3)c2)cc1` the Potency was inconclusive [inhibitor, single point]. In the case of `COc1ccccc1CCNS(=O)(=O)c1ccc(N2CCCCS2(=O)=O)cc1`, the Potency is reported as active: 20.6 µM. In the case of `CC(C)Nc1ncnc2c1cnn2Cc1ccccc1Cl`, the Potency is reported as inconclusive [inhibitor, partial curve, poor fit]. In the case of `CCOC(=O)c1cn(CC)c2ccc(S(=O)(=O)N3CC(C)CC(C)C3)cc2c1=O` (stereo not drawn), the Potency is reported as “inactive”. With `Cc1ccc(Nc2cc(C)nc3c(C)ccc([N+](=O)[O-])c23)cc1` the Potency was inconclusive [inhibitor, partial curve, poor fit]. In the case of `Cc1ccn2c(=O)nc(SCC(=O)N3CCCCC3)nc2c1`, the Potency is reported as “inactive”. For `Cc1cc(C(F)(F)F)n2nc(-c3sccc3-n3cccc3)cc2n1`, the activity change, negative = growth inhibition was inconclusive: -30.7% [inhibitor]. For `C#CCOCCOCCOCCNc1nc(N2CCN(C(=O)CCCCCCCCCCNC(=O)[C@H](CCCCN)n3cc(CCO)nn3)CC2)nc(N2CCN(C(=O)CCCCCCCCCCNC(=O)[C@@H]([C@H](C)O)n3cc(C)nn3)CC2)n1`, the Potency was inconclusive [inhibitor, single point]. With `COCC(C)NC(=O)c1cc2cc(OC)ccc2[nH]1` (stereo not drawn) the Potency was “inactive”. With `CCOC(=O)[C@]12CCC=C1N(Cc1ccco1)C(=O)[C@H](CC(=O)N1CCC(c3ccccc3)CC1)C2` the Potency was inconclusive [inhibitor, single point]. In the case of `Cc1nc2ccn(Cc3ccco3)c(=O)c2cc1C(=O)N1CCN(c2ccccc2)CC1`, the Potency is reported as “inactive”. With `O=C(COC(=O)C1(c2ccccc2F)CCCC1)NCc1cccs1` the Potency was active: 23.1 µM. With `O=S(=O)(c1ccccc1)c1nc(NCc2cccnc2)sc1Cl` the Potency was “inactive”. With `Cc1ccc(C2c3[nH]c4ccccc4c3CCN2C(=O)CCC2CCCC2)cc1` (stereo not drawn) the Potency was inconclusive [inhibitor, single point]. In the case of `O=C(COC(=O)c1ccc(S(=O)(=O)NCc2ccco2)cc1)NCc1ccccc1`, the Potency is reported as “inactive”. With `O=S(=O)(Nc1ccc2c(c1)OCO2)c1cccc(Br)c1` the Potency was “inactive”. In the case of `COc1cc2c(cc1OC)-c1cc(NC3CCCC3)nc(=O)n1CC2`, the Potency is reported as inconclusive [inhibitor, single point]. With `O=C(NCc1cc2ccccc2[nH]1)c1ccccc1F` the Potency was “inactive”. With `CN1CCN(NC(=O)c2cc(-c3ccc(Br)s3)nc3ccccc23)CC1` the Potency was active: 7.31 µM. For `O=C(NCc1ccco1)c1ccc2c(c1)N(Cc1ccccc1)C(=O)CS2`, the Potency was inconclusive [inhibitor, partial curve]. With `Cc1ccc(N/N=C/c2ccc(N3CCOCC3)cc2)cc1C` the Potency was inconclusive [inhibitor, single point]. With `O=C(Nc1nnc(C2CC2)o1)c1ccc(S(=O)(=O)N2CCc3ccccc3C2)cc1` the Potency was inconclusive [inhibitor, single point]. With `Cc1ccc(NC(=O)Cn2ccn(-c3ccc(F)c(F)c3)c(=O)c2=O)cc1C` the Potency was “inactive”. In the case of `CC(C)(C)C(=O)Cn1nnc(-c2ccc(C(F)(F)F)cc2)n1`, the activity change, negative = growth inhibition is reported as inconclusive: -34.9% [inhibitor]. With `Cc1onc(-c2c(F)cccc2Cl)c1C(=O)Nc1ccc(S(=O)(=O)Nc2ncccn2)cc1` the Potency was “inactive”. For `Cc1ccc(Nc2c(-c3ccccn3)nc3cccc(C)n23)cc1`, the Potency was active: 2.06 µM. With `CCOC(=O)C1=C(C)Nc2nc(SCC(=O)OC)nn2C1c1cc(F)cc(F)c1` (stereo not drawn) the Potency was inconclusive [inhibitor, single point] and the activity change, negative = growth inhibition was inconclusive: -30.3% [inhibitor]. For `COc1cc(C(=O)NNC2=NC(C)(C)Cc3cc(C)c(C)cc32)cc(OC)c1OC`, the Potency was “inactive”. In the case of `Cc1ccc(Cl)cc1-n1ncc2c(Nc3cccc(C)c3C)ncnc21`, the Potency is reported as active: 16.4 µM. For `Cc1cccc2cc(CNCC3CCCO3)c(Cl)nc12` (stereo not drawn), the Potency was “inactive”. With `Cc1nc(N/N=C/c2cccc(F)c2)cc(N2CCOCC2)n1` the Potency was inconclusive [inhibitor, single point]. For `O=C(c1ccc(CSc2nc3ccncc3n2Cc2ccccc2)cc1)N1CCCCCC1`, the Potency was active: 16.4 µM. For `C[C@]12CCC(=O)CC1=CCC1C3CC=C(C#N)[C@@]3(C)CC[C@@]12O` (stereo partly drawn), the Potency was “inactive”. With `COc1cc2c(cc1OC)CN(C(=O)CN1CCN(S(=O)(=O)c3ccccc3Br)CC1)CC2` the Potency was active: 2.06 µM. With `O=C(CSc1nc(=O)n2ccccc2n1)N1CCN(c2ccccc2)CC1` the Potency was inconclusive [inhibitor, single point]. For `CCC1CCC2(CC1)NC(=O)N(CC(=O)Nc1cccc(S(=O)(=O)N(C)c3ccccc3)c1)C2=O` (stereo not drawn), the Potency was inconclusive [inhibitor, single point]. For `Cc1cnn(C(=S)NCc2ccc(Cl)cc2)c1`, the Potency was active: 23.1 µM. For `NC(=S)N/N=C/c1c[nH]c2ccc(OCc3ccccc3)cc12`, the Potency was inconclusive [inhibitor, single point]. For `Clc1ccccc1-c1nccc(-n2ccnc2)n1`, the Potency was “inactive”. With `CCOC(=O)c1c(NC(=S)NC)sc2c1CCCC2` the Potency was inconclusive [inhibitor, single point]. For `CCC(C)C(NS(=O)(=O)c1ccc(C)cc1)C(=O)NCCCN1CCOCC1` (stereo not drawn), the Potency was inconclusive [inhibitor, partial curve]. In the case of `COC(=O)c1sccc1NC(=O)CC1C(=O)NCCN1C(=O)Nc1ccc(F)cc1F` (stereo not drawn), the Potency is reported as “inactive”. With `CC(C)c1ccc(OCC(=O)N(Cc2ccc(N(C)C)cc2)C2CCS(=O)(=O)C2)cc1` (stereo not drawn) the Potency was inconclusive [inhibitor, single point]. With `COc1cc(NC(=O)CN(C)S(=O)(=O)c2ccc3nc(C)sc3c2)cc(OC)c1` the Potency was inconclusive [inhibitor, single point]. In the case of `O=C(CCCCCCCC(=O)N1CCCCC1)N1CCCCC1`, the Potency is reported as inconclusive [inhibitor, single point]. For `Cc1noc(C)c1-c1ccc2ncnc(N3CCC(C(=O)O)CC3)c2c1`, the Potency was “inactive”. With `Cc1ccccc1N(C(=O)c1snc(C(N)=O)c1N)C(C(=O)NCc1ccccc1)c1ccc(O)cc1` (stereo not drawn) the Potency was active: 25.9 µM. With `COc1ccccc1CCNC(=O)C(=O)NCC1OCCN1S(=O)(=O)c1ccc(Cl)cc1` (stereo not drawn) the Potency was inconclusive [inhibitor, single point]. With `CCOC(=O)C1=C(CSc2nc3ccccc3s2)NC(=O)NC1c1cccc([N+](=O)[O-])c1` (stereo not drawn) the Potency was inconclusive [inhibitor, single point]. With `Cc1cc(C)c(C)c(C(=O)CSc2nnc(-c3ccc4[nH]c(C)c(C)c4c3)o2)c1C` the Potency was inconclusive [inhibitor, single point]. For `CC1(C)NC(=O)N(CCCCOc2ccc3ccccc3c2Cl)C1=O`, the Potency was “inactive”. For `Cc1ccnc(SCc2nc3ccccc3s2)n1`, the Potency was “inactive”. With `CCOC(=O)c1cc(-c2ccccc2)n(Cc2cc(CC)no2)n1` the Potency was “inactive”. With `CC(=O)Nc1cccc(N(C)C)c1` the Potency was “inactive”. With `CCOc1nc2ccccc2nc1NS(=O)(=O)c1ccc(Cl)cc1` the Potency was “inactive”. With `CC(=O)Nc1ccc(S(=O)(=O)N2CCN(CC(O)COc3ccc4ccccc4c3)CC2)cc1` (stereo not drawn) the Potency was inconclusive [inhibitor, single point]. In the case of `O=c1c(S(=O)(=O)c2cccc(Cl)c2)cn(Cc2ccccc2)c2cc(N3CCOCC3)c(F)cc12`, the Potency is reported as “inactive”. For `COC(=O)[C@H](CC(C)C)NC(=O)N1CCCCC1`, the Potency was “inactive”. In the case of `Clc1cccc(C2=NOC(c3nnc(-c4ccccc4)o3)C2)c1` (stereo not drawn), the Potency is reported as “inactive”. With `COc1ccc(C2CC(=O)Oc3c(C(CCN4CCCC(C)C4)c4ccc(N(C)C)cc4)c(OC)cc(OC)c32)cc1` (stereo not drawn) the Potency was inconclusive [inhibitor, partial curve, poor fit]. In the case of `Cc1nn(C)cc1/C=N/NC(=O)Cn1cncn1`, the Potency is reported as “inactive”. In the case of `O=C(NCc1ccc2c(c1)OCO2)C(=O)Nc1cc2c3c(c1)CC(=O)N3CCC2`, the Potency is reported as “inactive”. In the case of `COC(=O)/C=C1\OCc2cc(OC)c(OCc3ccccc3)cc21`, the Potency is reported as active: 20.6 µM.
